Test results as given in the supplement of paper PMC4604168 (melanoma cell lines).
Some of the results follow. Single values are uncertain, as repeats are few or missing.

What was measured:
Test in all cases: cell count relative to DMSO control; melanoma cells; higher = more viable cells
Settings in all cases: library dose: standard library concentration; 72 h
G361 = test system: G361
IPC-298 = test system: IPC-298
IST-MEL1 = test system: IST-MEL1
LB2518-MEL = test system: LB2518-MEL
LOXIMVI = test system: LOXIMVI
MEL-HO = test system: MEL-HO
MZ2-MEL = test system: MZ2-MEL
MeWo = test system: MeWo
RPMI7951 = test system: RPMI7951
RVH-421 = test system: RVH-421
SkMel28 = test system: SkMel28
SkMel2 = test system: SkMel2
SkMel30 = test system: SkMel30
SkMel5 = test system: SkMel5
UACC257 = test system: UACC257
UACC62 = test system: UACC62
WM115 = test system: WM115
WM1716 = test system: WM1716
WM1745 = test system: WM1745
WM3526 = test system: WM3526
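Also: cells treated in 1,536-well plates, then fixed and DAPI-stained, with nuclei counted from automated high-throughput microscope images.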

Row | Compound | cell count (G361) [%] | cell count (IPC-298) [%] | cell count (IST-MEL1) [%] | cell count (LB2518-MEL) [%] | cell count (LOXIMVI) [%] | cell count (MEL-HO) [%] | cell count (MZ2-MEL) [%] | cell count (MeWo) [%] | cell count (RPMI7951) [%] | cell count (RVH-421) [%] | cell count (SkMel28) [%] | cell count (SkMel2) [%] | cell count (SkMel30) [%] | cell count (SkMel5) [%] | cell count (UACC257) [%] | cell count (UACC62) [%] | cell count (WM115) [%] | cell count (WM1716) [%] | cell count (WM1745) [%] | cell count (WM3526) [%]
1 | O=C(Nc1cc(C(F)(F)F)cc(C(F)(F)F)c1)c1cc(Cl)ccc1O + OCc1c[nH]c2ccccc12 [Indole-3-carbinol] (first compound 0.08 µM, partner dose 4 µM) | 91.9 | 72.8 | 83 | 86.1 | 64.3 | 89.3 | 93.8 | 99.2 | 128 | 147 | 89.4 | 90.4 | 82.9 | 82.6 | 86.1 | 75.9 | 87 | 82.3 | 126 | 87.1
2 | Cn1nnc2c(C(N)=O)ncn2c1=O [temozolomide] + C=CCn1c(=O)c2cnc(Nc3ccc(N4CCN(C)CC4)cc3)nc2n1-c1cccc(C(C)(C)O)n1 [MK1775] (first compound 10 µM, partner dose 0.1 µM) | 70.1 | 51.5 | 70.5 | 47.1 | 62.2 | 78.9 | 83.7 | 73.5 | 64.6 | 80.6 | 27.5 | 77.8 | 48.8 | 45.2 | 87.7 | 59.5 | 42.1 | 48 | 44.3 | 60.9
3 | O=C(Nc1cc(C(F)(F)F)cc(C(F)(F)F)c1)c1cc(Cl)ccc1O + Cn1nnc2c(C(N)=O)ncn2c1=O [temozolomide] (first compound 0.08 µM, partner dose 10 µM) | 109 | 72 | 71.9 | 78.6 | 83.7 | 84.8 | 80.3 | 87.4 | 73.1 | 69.4 | 36.4 | 104 | 66.2 | 87.4 | 81.3 | 49.3 | 85.3 | 67 | 95.8 | 82.8
4 | Cn1nnc2c(C(N)=O)ncn2c1=O [temozolomide] + O=C(O)C(=O)Nc1sc2c(c1C(=O)O)CCNC2 [TCS401] (first compound 10 µM, partner dose 8.33333 µM) | 104 | 71.9 | 82.2 | 82.6 | 175 | 86.2 | 77.5 | 90.5 | 109 | 164 | 37.2 | 104 | 72 | 66.7 | 80 | 78.6 | 81.3 | 56.3 | 85.2 | 85.4
5 | O=C(O)[C@@H]1[O][Sb](=[O])([O][Sb]2(=[O])[O][C@H]([C@H](O)CO)[C@H](O)[C@H](C(=O)O)[O]2)[O][C@H]([C@H](O)CO)[C@@H]1O (stereo not given in full) [stibogluconate] + CS(=O)(=O)CCNCc1ccc(-c2ccc3ncnc(Nc4ccc(OCc5cccc(F)c5)c(Cl)c4)c3c2)o1 [lapatinib] (first compound 10 µM, partner dose 4 µM) | 63.1 | 86.5 | 101 | 102 | 107 | 77.4 | 62.1 | 63 | 37.9 | 95.7 | 83.9 | 96.1 | 75.3 | 58.2 | 85.9 | 49 | 77 | 74.1 | 83.9 | 71.1
6 | O=C(Nc1ccccc1)c1cc([N+](=O)[O-])ccc1Cl + CC(C)CCN1c2nc(Nc3cc(F)c(O)c(F)c3)ncc2N(C)C(=O)C1C [BID1870] (first compound 10 µM, partner dose 1 µM) | 57.5 | 81.3 | 91.5 | 54 | 55.5 | 77.2 | 83.9 | 53.9 | 89.2 | 65.1 | 52.7 | 70.5 | 71.3 | 57.1 | 71.7 | 54.5 | 75.5 | 89.5 | 84.9 | 72
7 | Cn1nnc2c(C(N)=O)ncn2c1=O [temozolomide] + COc1cc(Nc2ncc(F)c(Nc3ccc4c(n3)NC(=O)C(C)(C)O4)n2)cc(OC)c1OC [Tamatinib] (first compound 10 µM, partner dose 2 µM) | 78 | 85.4 | 70.1 | 85.3 | 33.6 | 88.1 | 86.9 | 84.5 | 78.7 | 85.7 | 55.7 | 77.2 | 77.4 | 61 | 84.9 | 66.7 | 93.4 | 59.3 | 44.8 | 79.3
